Laboratory results published in patent US11285169B2, “Methods for modulating chemotherapeutic cytotoxicity” (The United States of America, as represented by the …, priority 2013, dated 2022).
Structures can show the parent of a compound that is named as a salt. Where two headings read alike, the source gives them in different places.

Experiments:
[1] = test system: CD47 deficient (CD47 KO) Jurkat T cells
[2] = CD47 KO Jurkat T cells, 48 hours, 10^-9 to 10^-4 M, CellTiter-Glo
[3] = WT Jurkat cells, 48 hours, 10^-9 to 10^-4 M, CellTiter-Glo
[4] = difference CD47 KO minus WT Jurkat cells, 48 hours

Row | SMILES | Maximal Response CD47 KO (RLU) [1, 2] | Maximal Response WT (RLU) (WT Jurkat cells; [3]) | Δ Maximal Response CD47KO-WT [1, 4] | Maximal Response CD47 KO (RLU) [1] | Maximal Response WT (RLU) (WT Jurkat cells) | Δ Maximal Response CD47KO-WT [1]
1 | COc1ccc(-c2ccc3cc(C(=O)O)ccc3c2)cc1C12CC3CC(CC(C3)C1)C2 [Adapalene] | 48.053 RLU | 20.674 RLU |  |  |  | 
2 | Cc1c(C)n(Cc2ccc(-c3ccccc3C(=O)O)cc2)c2ccc(C(=O)N[C@@H](C)c3ccc([N+](=O)[O-])cc3)cc12 [SR1664] | 67.276 RLU | 25.029 RLU | 42.247 |  |  | 
3 | CC(C)(O)c1cc2nc(-c3cnc(N)nc3)nc(N3CCOCC3)c2s1 [GNE-493] | 47.021 RLU | 18.068 RLU | 28.953 |  |  | 
4 | COc1ccc(S(=O)(=O)Nc2cccnc2Nc2ccc(O)cc2)cc1 [E-7010] | 44.092 RLU | 10.419 RLU |  |  |  | 
5 | O=C(NOCC1CC1)c1ccc(F)c(F)c1Nc1ccc(I)cc1Cl [PD-184352] | 42.673 RLU | 14.102 RLU | 28.571 |  |  | 
6 | Cc1cncc2cccc(S(=O)(=O)N3CCCN(C(=O)CN)C[C@@H]3C)c12 [Glycyl-H-1152] | 99.473 RLU | 62.229 RLU |  |  |  | 
7 | CC(C)c1cnn2c(NCc3ccccc3)cc(N[C@@H](CO)[C@H](O)CO)nc12 [BS-194] | 43.598 RLU | 1.928 RLU | 41.67 |  |  | 
8 | CC1=NN(c2ccc(C)c(C)c2)C(=O)/C1=N\Nc1cccc(-c2cccc(C(=O)O)c2)c1O [Eltrombopagolamine] | 33.444 RLU | 9.025 RLU |  |  |  | 
9 | COc1cc(Nc2ncc3c(n2)-c2ccc(Cl)cc2C(c2c(F)cccc2OC)=NC3)ccc1C(=O)O [Alisertib] | 53.002 RLU | 28.645 RLU |  |  |  | 
10 | CS[C@H]1SC[C@H]2C(=O)N(C)[C@@H](C(C)C)C(=O)OC[C@@H](NC(=O)c3cnc4ccccc4n3)C(=O)N[C@@H](C)C(=O)N(C)[C@@H]1C(=O)N(C)[C@@H](C(C)C)C(=O)OC[C@@H](NC(=O)c1cnc3ccccc3n1)C(=O)N[C@@H](C)C(=O)N2C [Echinomycin] |  |  |  | 55.044 RLU | 8.075 RLU | 
11 | CC1(C)O[C@@H]2C[C@H]3[C@@H]4C[C@H](F)C5=CC(=O)C=C[C@]5(C)[C@@]4(F)[C@@H](O)C[C@]3(C)[C@]2(C(=O)CO)O1 [Fluocinolone acetonide] | 57.23 RLU | 25.744 RLU |  |  |  | 
12 | C[C@@](Cc1ccc(O)c(O)c1)(NN)C(=O)O [Carbidopa] | 43.994 RLU | 12.731 RLU |  |  |  | 
13 | CCCCC(C)(C)[C@H](O)/C=C/[C@H]1[C@H](O)CC(=O)[C@@H]1C/C=C\CCCC(=O)O [16,16-dimethyl PGE2] |  |  |  | 73.807 RLU | 31.844 RLU | 41.963
14 | CC(C)(Sc1ccc(CCN(CCCCC2CCCCC2)C(=O)NC2CCCCC2)cc1)C(=O)O [GW-7647] | 50.573 RLU | 4.907 RLU | 45.666 |  |  | 
15 | CCOc1cc(N2CCC(O)CC2)ccc1Nc1ncc2c(n1)N(C)c1ccccc1C(=O)N2C [XMD8-92] | 39.731 RLU | 15.283 RLU | 24.448 |  |  | 
16 | O=C(O)CNC(=O)c1c(O)c2ccccc2n(Cc2ccccc2)c1=O [IOX2] | 113.814 RLU | 89.375 RLU | 24.439 |  |  | 
17 | Cc1nc2ccc(CN(C)c3ccc(C(=O)N[C@@H](CCC(=O)O)C(=O)O)s3)cc2c(=O)[nH]1 [Raltitrexed] | 59.656 RLU | 22.166 RLU |  |  |  | 
18 | CC(CCc1ccc(O)cc1)NCCc1ccc(O)c(O)c1 (centres unmarked) [Dobutamine hydrochloride] | 40.55 RLU | 8.698 RLU |  |  |  | 
